The other results are listed elsewhere or left out. Viral Rep nickase domains cut single-stranded DNA in vitro at 3 µM enzyme and 37 °C for 1 h; the strands have 90 letters, of which the middle is given. Values are log2 of uncut reads against the no-enzyme pool; more negative means more cut, near 0 not cut, and no call is made. The scaling is to total reads; values above 0 arise when much of the pool is cut.
Columns and labels:
Experiment in all cases: uncleaved DNA left, log2 of reads against the no-enzyme library (log2 ratio); higher = less cleavage (more negative = more Rep cleavage of the k-mer); sequences stand for … in CTCGTCCG…ACCGGAGA
[1] = test system: T1, Rep nickase domain of Muscovy duck circovirus
T1 sequence (protein, residues 1-111, tag omitted): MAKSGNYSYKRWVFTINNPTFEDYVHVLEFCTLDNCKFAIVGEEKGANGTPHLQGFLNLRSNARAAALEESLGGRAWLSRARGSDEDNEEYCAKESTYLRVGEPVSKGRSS
Procedure: (§1)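 A pool of 90-nt single-stranded DNAs with seven random bases just before the constant AC of the nick site (name = the seven bases) was cut by 3 µM recombinant His6-SUMO-tagged Rep nickase domain (300 nM DNA, 50 mM HEPES pH 8.0, 50 mM NaCl, 1 mM MnCl2, 1 h, 37 °C, three replicates). Uncut DNA was amplified and sequenced.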

[2] = test system: T2, Rep nickase domain of banana bunchy top virus
T2 sequence (protein, residues 1-94, tag omitted): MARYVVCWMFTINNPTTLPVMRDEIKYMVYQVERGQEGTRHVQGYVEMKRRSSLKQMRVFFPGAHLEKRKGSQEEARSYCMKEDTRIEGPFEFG
Procedure: as §1

[3] = test system: T3, Rep nickase domain of cabbage leaf curl virus
T3 sequence (protein, residues 1-116, tag omitted): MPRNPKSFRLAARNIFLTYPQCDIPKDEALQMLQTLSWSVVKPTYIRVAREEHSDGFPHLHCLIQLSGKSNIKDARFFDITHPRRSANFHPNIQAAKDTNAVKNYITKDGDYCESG
Procedure: as §1

[4] = test system: T4, Rep nickase domain of chickpea chlorotic dwarf virus
T4 sequence (protein, residues 1-124, tag omitted): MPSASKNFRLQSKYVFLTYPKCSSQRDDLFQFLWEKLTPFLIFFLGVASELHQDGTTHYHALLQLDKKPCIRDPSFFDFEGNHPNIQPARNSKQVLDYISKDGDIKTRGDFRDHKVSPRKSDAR
Procedure: as §1

[5] = test system: T5, Rep nickase domain of faba bean necrotic yellows virus
T5 sequence (protein, residues 1-98, tag omitted): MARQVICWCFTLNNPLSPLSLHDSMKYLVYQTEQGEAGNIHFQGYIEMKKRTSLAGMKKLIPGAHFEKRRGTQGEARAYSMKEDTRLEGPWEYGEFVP
Procedure: as §1

[6] = test system: T6, Rep nickase domain of maize striate mosaic virus
T6 sequence (protein, residues 1-117, tag omitted): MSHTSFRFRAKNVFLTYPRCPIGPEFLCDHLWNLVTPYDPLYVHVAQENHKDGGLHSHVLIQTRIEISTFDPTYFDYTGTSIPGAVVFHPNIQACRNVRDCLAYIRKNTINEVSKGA
Procedure: as §1

[7] = test system: T7, Rep nickase domain of porcine circovirus 2
T7 sequence (protein, residues 2-116, tag omitted): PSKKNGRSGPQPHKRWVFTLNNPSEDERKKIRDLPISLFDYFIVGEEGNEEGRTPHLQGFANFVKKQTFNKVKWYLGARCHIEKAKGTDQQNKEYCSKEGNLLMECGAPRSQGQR
Procedure: as §1

[8] = test system: T8, Rep nickase domain of tomato golden mosaic virus
T8 sequence (protein, residues 1-124, tag omitted): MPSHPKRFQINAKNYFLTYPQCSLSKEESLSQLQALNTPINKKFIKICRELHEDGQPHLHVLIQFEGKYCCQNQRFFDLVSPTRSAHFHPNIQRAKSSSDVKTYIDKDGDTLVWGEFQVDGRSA
Procedure: as §1

[9] = test system: T9, Rep nickase domain of tomato yellow leaf curl virus
T9 sequence (protein, residues 1-136, tag omitted): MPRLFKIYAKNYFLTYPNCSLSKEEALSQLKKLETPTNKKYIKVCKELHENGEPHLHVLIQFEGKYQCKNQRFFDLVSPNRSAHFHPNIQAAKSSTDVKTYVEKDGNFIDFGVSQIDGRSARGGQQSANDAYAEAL
Procedure: as §1

[10] = test system: T10, Rep nickase domain of wheat dwarf virus
T10 sequence (protein, residues 1-137, tag omitted): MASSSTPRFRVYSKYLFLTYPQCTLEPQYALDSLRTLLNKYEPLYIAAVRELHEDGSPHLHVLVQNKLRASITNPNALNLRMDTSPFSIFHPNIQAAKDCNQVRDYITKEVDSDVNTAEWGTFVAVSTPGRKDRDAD
Procedure: as §1

| Sequence | uncleaved DNA left (log2) [1] | uncleaved DNA left (log2) [2] | uncleaved DNA left (log2) [3] | uncleaved DNA left (log2) [4] | uncleaved DNA left (log2) [5] | uncleaved DNA left (log2) [6] | uncleaved DNA left (log2) [7] | uncleaved DNA left (log2) [8] | uncleaved DNA left (log2) [9] | uncleaved DNA left (log2) [10] |
| --- | --- | --- | --- | --- | --- | --- | --- | --- | --- | --- |
| CCTGCCG | 0.0437 | -0.00267 | -0.817 | -0.295 | 0.00199 | -0.949 | 0.136 | 0.0349 | -0.0809 | -0.11 |
| CACTGAC | 0.139 | 0.0251 | -0.0537 | 0.41 | -0.0762 | 0.214 | 0.0167 | -0.164 | -0.0154 | 0.083 |
| GCATGCA | 0.0796 | -0.0436 | -0.524 | -0.529 | 0.0952 | -1 | 0.0283 | -0.00557 | 0.141 | -0.0487 |
| AGCCTTC | 0.118 | -0.0489 | 0.335 | 0.612 | 0.0618 | 0.118 | 0.0108 | 0.0109 | 0.00127 | 0.108 |
| GAGATGC | 0.0201 | 0.071 | 0.143 | 0.649 | 0.108 | -0.193 | 0.188 | 0.00979 | 0.0274 | 0.0861 |
| TGATATC | 0.025 | 0.0629 | 0.34 | 0.513 | 0.0065 | 0.56 | 0.0452 | 0.0569 | 0.0191 | 0.09 |
| GACCTGT | 0.0978 | 0.134 | 0.246 | 0.384 | 0.00847 | 0.889 | 0.0892 | 0.0414 | 0.041 | -0.0576 |
| AGCCGCG | 0.117 | 0.148 | -0.562 | 0.566 | 0.0714 | -0.443 | 0.229 | 0.14 | 0.153 | 0.0738 |
| TAGACGC | 0.0968 | 0.0862 | 0.0329 | 0.0568 | -0.0865 | -0.332 | 0.0319 | -0.159 | 0.11 | 0.0737 |
| GGATGGG | 0.0846 | -0.0371 | -0.115 | 0.0546 | -0.00903 | -0.408 | 0.231 | -0.0666 | -0.0552 | -0.106 |
| CCAGGAT | 0.156 | 0.124 | 0.254 | 1.6 | -0.132 | 1.9 | 0.0959 | 0.0924 | -0.117 | -0.066 |
| TAAATGA | -0.0338 | 0.0623 | -0.289 | -2.01 | -0.102 | -0.782 | 0.0382 | -0.11 | -0.0211 | -0.151 |
| TAGTAGA | 0.0991 | 0.00263 | 0.108 | -0.612 | -0.0431 | -0.821 | -2.76 | 0.083 | 0.107 | 0.00648 |
| CAGGCAG | 0.0546 | -0.00365 | -0.491 | -0.332 | 0.0824 | -0.812 | 0.209 | 0.0372 | 0.0634 | -0.0297 |
| TCTTCTT | -2.88 | -0.304 | -0.0648 | -2.35 | 0.0492 | -0.39 | -3.36 | -0.105 | -0.0231 | -0.0209 |
| ACCTGCC | 0.0369 | 0.00781 | -0.436 | -0.316 | -0.0431 | -0.775 | 0.0524 | -0.00652 | -0.038 | -0.0965 |
| GCCCTGG | 0.0876 | 0.145 | 0.158 | 0.631 | -0.00868 | 0.144 | 0.156 | 0.153 | -0.112 | 0.0151 |
| AACTGCC | -0.0664 | -0.084 | -0.194 | 0.0503 | 0.0295 | -0.438 | -0.1 | -0.158 | -0.0977 | -0.0292 |
| GCTTTCT | -0.653 | -0.0976 | -0.00418 | -0.946 | -0.153 | -0.0192 | -1.12 | -0.0602 | 0.0277 | -0.0466 |
| AAACTGT | 0.0827 | 0.0662 | 0.0409 | -0.0428 | 0.0572 | 0.968 | 0.0728 | 0.0296 | -0.0515 | 0.027 |
| CCCGTAA | 0.041 | 0.0779 | -0.00187 | -0.214 | 0.0459 | -0.485 | 0.0501 | 0.108 | 0.13 | -0.0754 |
| TCAGCAC | 0.0353 | 0.0835 | -0.0713 | -0.615 | 0.012 | -0.916 | 0.0478 | -0.0085 | 0.141 | 0.00862 |
| TATGTTG | -0.058 | -0.0772 | -0.477 | -0.661 | -0.0596 | -1.02 | 0.0302 | -0.161 | -0.00185 | -0.139 |
| GATTTTA | -0.389 | -0.17 | 0.249 | 0.329 | -0.0814 | 1.32 | -0.411 | 0.0462 | -0.0457 | 0.000686 |
| ATGTGCG | -0.000438 | -0.0615 | 0.0804 | 1.25 | 0.0142 | 1.24 | 0.103 | 0.000251 | -0.117 | -0.0261 |
| AGTCCCG | -0.162 | -0.0783 | -0.449 | 0.118 | 0.0893 | -0.654 | -0.353 | -0.0149 | -0.0246 | -0.0262 |
| CGCCCCT | -0.197 | -0.215 | -0.176 | -1.36 | -0.22 | -0.137 | -0.579 | -0.209 | -0.109 | -0.186 |
| GTTGAGG | 0.15 | 0.189 | 0.604 | 1.29 | 0.0932 | 1.34 | 0.192 | 0.102 | -0.0182 | 0.121 |
| CGTGTTC | -0.0111 | 0.00586 | 0.105 | -0.132 | -0.0562 | 0.116 | -0.112 | -0.0877 | 0.0926 | -0.0735 |
| CTTCACT | -0.194 | -0.142 | -0.359 | -2.38 | -0.125 | -0.963 | -0.888 | -0.111 | -0.0657 | -0.0658 |
